The record followed here is ChEMBL document CHEMBL4888484, “Replenishing the malaria drug discovery pipeline: Screening and hit evaluation of the MMV Hit Generation Library 1 (HGL1) against asexual blood stage Plasmodium falciparum ,using a nano luciferase reporter read-out” (2022).

The structures appear in SMILES notation. In all, about 150,000 compounds went through this assay and about 540 (0.36%) showed an effect of 50% or more. The list shows a part of the results.

The test has as its system Plasmodium falciparum. Description: Primary screen in NF54 nanoGlo assay, in single point, at 2uM, 72h; a lower Z score goes with more inhibition. The note with it: timepoint 72 hour. The class given is functional, Erythrocyte.
Turning to `Cc1ccc(CNc2nc3ccccc3c3nc(CCc4c(C)n[nH]c4C)nn23)cc1`, the “% Inhibition” value is reported as -6% and the Z score worked out at 0.96.

Take `COc1ccc(CN2CC[C@@H]3OCc4cnnn4[C@@H]3C2)cc1`: the “% Inhibition” value is -14% and the Z score is 1.34.

With `Cc1ccc(N(C)C(=O)CN)cc1Cl`, the “% Inhibition” value is -15% and the Z score is listed as 2.81.

In the case of `N#Cc1ccccc1OCCN1CCc2cncnc2C1`, the “% Inhibition” value is 3% and the Z score is -0.52.

As to `C=CCNC(=O)C(=O)NCCc1ccc(F)cc1`, the “% Inhibition” value was -7% and the Z score came out at 0.91.

Take `CN(CCNC(=O)c1ccc2[nH]c3c(c2c1)CN(C(=O)C1CCC1)CC3)C1CCCCC1`: the “% Inhibition” value is 3% and the Z score is listed as -0.39.

In the case of `CCS(=O)(=O)N(CCN1CCCCC1)C1CN(C(=O)c2ccncc2)C1`, the “% Inhibition” value is reported as 5% and the Z score was -0.73.

On to `CC(C)Nc1ccc(C(F)(F)F)cc1N`, for which the “% Inhibition” value is -3% and the Z score was determined as 0.53.

As to `Cc1ccc2c(c1)CCCN2C(=O)[C@@H]1COc2ccccc2O1`, the “% Inhibition” value is listed as 5% and the Z score is reported as -0.67.

Consider `CC(C)c1ccc(C#N)c(-c2ccc(C(=O)N3CCC(F)(F)CC3)cc2)n1`, for which the “% Inhibition” value was -8% and the Z score is listed as 1.43.

Turning to `CCc1ccc(C(=O)N(C)Cc2cc(C(C)C)on2)[nH]1`, the “% Inhibition” value is -2% and the Z score was found to be 0.24.

Consider `COc1ccc(Cc2n[nH]c(NC(=O)CCNc3nc(C)cc(C)n3)n2)cc1`, for which the “% Inhibition” value is given as 2% and the Z score is -0.31.

Consider `CCOC(=O)C1=CN(Cc2ccc(OC)cc2)S(=O)(=O)N=C1c1ccccc1`, for which the “% Inhibition” value is on record as -14% and the Z score is 1.56.

Turning to `O=C(NCCn1ccc(-c2ccsc2)n1)c1cccnc1`, the “% Inhibition” value is -8% and the Z score turned out to be 1.63.

With `O=C(Nc1cc(S(=O)(=O)N2CCOCC2)ccc1N1CCCC1)c1ccc(-n2cccn2)nc1`, the “% Inhibition” value is recorded as -13% and the Z score was 2.45.

For `CC(C)(C)OC(=O)N1CCN(C2CCC(NC(=O)c3cc(F)ccc3F)CC2)CC1` (stereo unspecified), the “% Inhibition” value is listed as -11% and the Z score is 1.25.

Turning to `COC1CCCC(C(=O)NCC2CCC3(CCOCC3)C2O)C1` (stereo unspecified), the “% Inhibition” value is -3% and the Z score turned out to be 0.27.

On to `C[C@@H](c1cc(-c2ccccc2)[nH]n1)N(C)C(=O)C1CCOCC1`, for which the “% Inhibition” value is recorded as -11% and the Z score stood at 1.41.

For `CC(C)n1ccnc1CNC(=O)N1CCC[C@@H]1C(N)=O`, the “% Inhibition” value came to 1% and the Z score is -0.2.

For `CC(C)COC[C@@H](O)CN(Cc1c(-c2ccccc2)noc1N1CCOCC1)C(C)C`, the “% Inhibition” value worked out at 19% and the Z score was -3.

`CS(=O)(=O)N(CC(=O)N1CC(=O)Nc2ccccc21)c1ccc(C(F)(F)F)cc1`: the “% Inhibition” value is on record as -19% and the Z score is 3.19.

`O=C(C1=CCC1)N1C[C@H](NC(=O)C(F)(F)F)CC[C@H]1C(F)(F)F`: the “% Inhibition” value is -2% and the Z score was determined as 0.35.

In the case of `C=CCCC(=O)N1CCC(F)(F)[C@@H](C)C1`, the “% Inhibition” value is -9% and the Z score is reported as 0.88.

`Oc1ccc([C@@H](O)CNCc2cc(O)c3cccc(Cl)c3n2)cc1`: the “% Inhibition” value is 6% and the Z score is recorded as -0.84.

Take `CN(C)Cc1ccoc1C(=O)NCc1cnc2nccn2c1`: the “% Inhibition” value is -7% and the Z score is 0.97.

For the compound `COC(=O)C[C@](C)(NCc1ccccc1F)c1ccncc1`, the “% Inhibition” value came out at 2% and the Z score is -0.17.

For `CN1CCN([C@H]2CCCCN(C(=O)Nc3nccs3)C2)CC1`, the “% Inhibition” value is -3% and the Z score is reported as 0.52.

In the case of `O=S(=O)(Nc1ccc([C@H]2CCOC2)cc1)C1CC1`, the “% Inhibition” value is recorded as 14% and the Z score is -1.62.

In the case of `CN(C)c1ncccc1NS(=O)(=O)c1cc(F)c(F)c(F)c1`, the “% Inhibition” value is recorded as -4% and the Z score is recorded as 0.43.

In the case of `O=C(c1cccnc1O)N1CCC[C@H](c2nccn2Cc2ccccc2)C1`, the “% Inhibition” value is reported as -7% and the Z score was determined as 1.4.

Consider `CCN1Cc2nc(OC)c(CNC(=O)N(C)Cc3noc(C)n3)cc2C1=O`, for which the “% Inhibition” value was -3% and the Z score is listed as 0.36.

For `Cc1cccc(C)c1OCCN(C)C(=O)CC[C@H]1CCCCN1C`, the “% Inhibition” value is listed as -10% and the Z score came out at 1.4.

With `COc1ccc(CCNC(=O)Cc2cc(OCc3ccccc3)c(OC)cc2Br)cc1OC`, the “% Inhibition” value is reported as -12% and the Z score was found to be 2.15.

For the compound `COc1ccc(-c2nc(NCc3ccc(F)cc3)[nH]c(=O)c2C#N)cc1`, the “% Inhibition” value is given as -5% and the Z score stood at 0.88.

On to `CC(C)CN1Cc2cccc(NS(=O)(=O)c3cccnc3)c2C1`, for which the “% Inhibition” value amounted to 29% and the Z score is listed as -3.84.

In the case of `O=C(O)c1ccc(CN2CC[C@H](c3nc4ccccc4o3)C2)cc1`, the “% Inhibition” value was -13% and the Z score was determined as 1.65.

`CC1CCN(S(=O)(=O)c2ccc(CNC(=O)C3CCCCC3)s2)CC1`: the “% Inhibition” value is on record as -32% and the Z score is recorded as 3.22.

Regarding `CCOc1cccnc1C(=O)N1CCC[C@H](c2[nH]ncc2CN2CCOCC2)C1`, the “% Inhibition” value is reported as -4% and the Z score came out at 0.67.

On to `O=C(c1cccc2ccccc12)N1CCc2nc(-c3cccc(F)c3)[nH]c(=O)c2C1`, for which the “% Inhibition” value is listed as -14% and the Z score came out at 1.35.

For the compound `O=C(Nc1nc(C(=O)N2CCCC2)co1)c1cnccn1`, the “% Inhibition” value is -12% and the Z score was determined as 2.41.

In the case of `CC(C)N1CC(=O)N(c2cc(-c3ccccc3)ns2)C1=O`, the “% Inhibition” value is -5% and the Z score stood at 0.51.

As to `CC1(C)C[C@@H]1C(=O)NCc1cccc(=O)[nH]1`, the “% Inhibition” value is listed as -7% and the Z score worked out at 1.25.

Turning to `Cc1cc(C)n(C[C@H](O)COCc2ccco2)n1`, the “% Inhibition” value is -6% and the Z score amounted to 1.06.
